# Data as given in PubChem BioAssay AID686971 (National Center for Advancing Translational Sciences (NCATS), 2013).
# Hit rate of the full screen: of about 360,000 compounds, about 7,500 (2.1%) were called active. This list was built around the results that the source calls inconclusive (neither active nor inactive); the mix of calls is not that of the screen. Calls follow the shape of the dose curve; as a rule, active = well fitted cell-killing curve with a large enough effect; inconclusive = small, poorly fitted or top-dose-only effect, or effect the other way, or another doubt; inactive = no such curve, though single readings can be large or run the other way. Potencies of inconclusive entries are left out as doubtful fits.
# Assay: qHTS for induction of synthetic lethality in tumor cells producing 2HG: qHTS for the HT-1080-IDH1KD cell line;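 as to activity, negative = toxicity: 0% = DMSO wells and -100% = cell-free medium wells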
# Details: HT-1080 IDH1 knockdown viability, ATP luminescence, 48 h; activity, negative = toxicity: at 46.1 µM (top of the series) unless noted
# Procedure, shortened: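 Luminescent ATP read-out (CellTiter-Glo, 10 min at room temperature) after 48 h compound exposure at 37 °C gave viability of IDH1-knockdown HT-1080 cells. Activity was normalised to DMSO and cell-free wells, then fitted as concentration-response curves.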
# Potency is read from the fitted curve at half-maximal effect; tags tell the direction and shape of the fitted curve.
SMILES,Potency,"activity, negative = toxicity"
CCOc1ccc(-c2nnc(N3CCCCC3)c3ccccc23)cc1,"inconclusive [cytotoxic, single point]",
O=C(Nc1ccc(Cl)cc1)Nc1nnc(CSCc2ccccc2)s1,inactive,
COc1ccc(/C=N/NC(=O)COc2ccccc2-c2ccccc2)cc1,active: 0.82 µM,
COCOCCn1cc(CN2CCS(=O)(=O)N(Cc3ccc(-c4ccccc4)cc3)C(CC(C)C)C2=O)nn1 (stereo not given),"inconclusive [cytotoxic, single point]",
Cc1occc1C(=O)NNC(=O)c1cccc(F)c1,"inconclusive [rising, single point]",
COc1ccc(Cl)cc1NC(=O)C1Cc2ccccc2CN1S(C)(=O)=O (stereo not given),"inconclusive [cytotoxic, full curve, poor fit]",
N=C1S/C(=C\c2ccc(-c3cccc(Cl)c3)o2)C(=O)N1c1nccs1,"inconclusive [cytotoxic, partial curve]",
Cc1ccc(C)c(NC(=S)NNC(=O)c2ccco2)c1,"inconclusive [cytotoxic, single point]",
COc1ccc(C(=O)N/N=C/c2ccccc2OC(=O)c2ccccc2)cc1,active: 4.11 µM,
COc1ccccc1N1CCN(C(=O)/C=C/c2cccc([N+](=O)[O-])c2)CC1,inactive,
CS(=O)(=O)N1CCc2cc(S(=O)(=O)NCCNS(=O)(=O)c3ccc4c(c3)CCN4S(C)(=O)=O)ccc21,,inconclusive: 16.3% [cytotoxic]
COc1ccc(NC(=O)C2(C)Cc3c(-c4cccc(NC(C)=O)c4)ccnc3O2)cc1 (stereo not given),"inconclusive [cytotoxic, full curve]",
CC(C)C[C@@H]1COc2cccc(N3CCC[C@H]3CO)c2S(=O)(=O)N1,inactive,
O=C(Nc1cccc(NC(=O)c2ccc(-c3cccc(Br)c3)o2)c1)c1ccco1,"inconclusive [cytotoxic, single point]",
O=C(CCS(=O)(=O)c1ccc(F)cc1)Nc1nnc(-c2ccco2)o1,inactive,
Cc1cc(N2CCC(C(=O)N3CCN(c4cccc(C)c4C)CC3)CC2)n2ncnc2n1,inactive,
O=C(CS(=O)Cc1ccccc1Cl)Nc1ccccc1Cl (stereo not given),inactive,
COc1ccc(CCNC(=O)COc2cc(O)c3c(c2)OC(C)(C)CC3=O)cc1,inactive,
Cc1sc2nc(C3CC3)nc(N3CCN(C(=O)c4ccc(F)cc4)CC3)c2c1C,"inconclusive [cytotoxic, partial curve]",
COC(=O)c1ccc(/C=C2/SC(=S)N(CCCC(=O)Nc3ccccn3)C2=O)cc1,"inconclusive [cytotoxic, single point]",
